The campaign covered roughly 52,000 compounds. About 1,700 (3.3%) were called active. Rule as the data show it: active = survival mostly below about 52% (no sharp cut-off); inactive = mostly above about 56%. This is one part of the list.

In the test the test system is Wild type. The experiment in a line: S. aureus survival, RN4220 and DeltatarO strains – OD600, teichoic acid synthesis inhibitors, primary screen (AID 463173). To be noted: S. aureus RN4220 wild type/DeltatarO growth, OD600, 18 h, hits give low values, screened at 18.75 µg/mL (by protocol).
Turning to `CCCCNc1nc(Oc2ccc(=O)n(-c3ccccc3)n2)nc(N(C)C)n1`, the survival was inactive: 87%.
In the case of `O=C(OCc1ccccn1)c1ccc(COc2ccccc2Cl)o1`, the survival was inactive: 110%.
To `CN(C(=O)c1nn(C)c2c1COc1ccccc1-2)c1cccc(C(F)(F)F)c1` belongs inactive: 84%; to `CCOc1ccccc1NC(=O)C(NS(=O)(=O)c1cccc2nsnc12)c1ccccc1` (centres undefined), inactive: 90%.
For `Cc1nnc(N2CCN(c3ccccc3F)CC2)c2c1nnn2Cc1ccc(F)cc1`, the survival is inactive: 88%.
To `COCCNC(=O)c1c(NC(=O)Cc2coc3cc(C)ccc23)sc2c1CCCC2` belongs inactive: 77%; to `COc1ccc(N2CCN(CCCNC(=O)c3cnn(-c4ccc(F)cc4)c3-n3cccc3)CC2)cc1`, inactive: 77%.
For `CCOC(=O)c1cn(CC(=O)Nc2cccc(Cl)c2C)nn1` the value was inactive: 86%; for `COc1ccc(N2CCN(c3nc(-c4ccccc4F)nc4ccccc34)CC2)cc1`, inactive: 92%; for `O=C(CN(c1cccc(Br)c1)S(=O)(=O)c1ccccc1)N1CCc2ccccc2C1`, inactive: 83%.
With `CCOC(=O)c1c(C)[nH]c(C)c1S(=O)(=O)N1CCC(C(=O)NCc2ccccc2)CC1`, the survival is inactive: 55%.
As for `Cc1ccc(C)c(OCCSc2nc3ccccc3n2CC(=O)N2CCOCC2)c1`, the survival is inactive: 78%.
To `COc1ccc(-c2ccc(NS(=O)(=O)c3ccc(F)c(C(F)(F)F)c3)cc2)nn1` belongs inactive: 127%; to `COC(=O)c1c(NC(=O)CCCOc2ccc(C)cc2)sc2c1C(C(=O)OC)CC2` (centres undefined), active: 1%.
As for `CCc1cccc(CC)c1NC(=O)c1cc(S(=O)(=O)N2CCc3ccccc32)cn1C`, the survival was inactive: 83%.
For `Cc1ccc(CN2CCCn3nc(C(=O)NCCN(C)C)cc3C2=O)cc1` the value was inactive: 80%.
Take `COc1cccc(OCc2nc3ccccc3n2CCOc2ccccc2)c1`: the survival was inactive: 74%.
To `Cc1nn2c(=O)cc(COC(=O)c3ccccc3NC(=O)c3ccccc3C)nc2s1` belongs inactive: 126%.
To `Cc1nc2ccn(Cc3ccco3)c(=O)c2cc1C(=O)N1CCN(c2ccccc2F)CC1` belongs inactive: 78%; to `COc1ccc(NC(=O)Cc2coc3cc(C)cc(C)c23)c(OC)c1`, inactive: 88%.
Take `COc1ccc2c(c1)c1c(c(=O)n(Cc3ccccc3)c(=O)n1Cc1cc(C)ccc1C)n2C`: the survival is inactive: 64%.
For `Cc1ccc(S(=O)(=O)N2CCCC(c3nc4c(nnn4Cc4ccc(OC(F)(F)F)cc4)c(=O)[nH]3)C2)cc1` (centres undefined) the value was inactive: 86%; for `CCOC(=O)c1ccc2c(c1)N(Cc1cccc([N+](=O)[O-])c1)C(=O)c1ccccc1S2`, inactive: 77%; for `Cn1nc(-c2ccc(OCC(=O)Nc3ccccc3)cc2)c2ccccc2c1=O`, inactive: 75%.
`O=C(Cn1c(=O)nc(-c2ccccc2)c2cc(Cl)ccc21)NCc1ccccc1`: the survival was inactive: 68%.
Take `CC(=O)Cn1nnc2sc(-c3ccccc3)cc2c1=O`: the survival is inactive: 82%.
Consider `Cc1c(Cl)cccc1Nc1sc(C(=O)c2ccccc2)c(N)c1S(=O)(=O)c1ccccc1`, for which the survival is inactive: 91%.
For `COCCNC(=O)c1cc2n(n1)CCCN(Cc1ccc(C)cc1)C2=O` the value was inactive: 73%; for `COC(=O)N1N=C(c2ccccc2)CC1(O)C(F)(F)F` (centres undefined), inactive: 102%.
For `O=c1c2c([nH]c3ccccc13)CCC2` the value was inactive: 107%.
For `O=C1CC(c2nc3ccccc3n2Cc2c(F)cccc2Cl)CN1c1cccc(C(F)(F)F)c1` (centres undefined) the value was inactive: 73%; for `CSc1cccc(N2C(=O)N(Cc3ccc([N+](=O)[O-])cc3)c3ccccc3S2(=O)=O)c1`, inactive: 99%; for `CCC1C(=O)N=C(SCC(=O)Nc2cccc3ccccc23)NC1=O` (centres undefined), inactive: 97%.
With `CN(Cc1ccccc1)C(=O)c1cc2c(=O)n(C)c3ccccc3c2s1`, the survival is inactive: 82%.
For `CCOC(=O)N1CCc2c(sc3c2c(=O)n(Cc2ccccc2)c(=O)n3Cc2c(F)cccc2Cl)C1`, the survival was inactive: 74%.
For `O=C(CN1CCN(c2ncccn2)CC1)N(Cc1ccccc1)c1ccc(F)cc1` the value was inactive: 104%.
To `COc1ccc(CC(=O)Nc2c(C(=O)Nc3ccccc3F)oc3ccccc23)cc1` belongs inactive: 85%; to `COc1ccc(NC(=O)CC2C(=O)N(c3ccc(C)cc3)C(=O)N2CCc2ccccc2)cc1` (centres undefined), inactive: 79%.
For `O=C(N1CCCCC1)C1(c2ccccc2)CCOCC1` the value was inactive: 103%; for `Brc1ccc(-c2cc3c(N4CCN(c5ccccc5)CC4)nccn3n2)cc1`, inactive: 151%; for `Cc1ccccc1NC(=O)c1sc2nc(-c3ccncc3)ccc2c1N`, inactive: 78%.
Consider `O=C(c1cc2ccccc2o1)N1CCCC1`, for which the survival is inactive: 117%.
Take `O=C(c1ccccc1)N1CCN(Cc2ccccc2)CC1`: the survival is inactive: 91%.
Regarding `O=C(CC1C(=O)N(c2ccc(F)cc2)C(=O)N1Cc1cccnc1)Nc1ccc(F)cc1` (centres undefined), the survival is inactive: 99%.
As for `CCCCOc1cccc(C(=O)Nc2cc3nn(-c4ccc(F)cc4)nc3cc2C)c1`, the survival was inactive: 79%.
For `CCCN(CCC)CCCNC(=O)Cn1ncc2c3ccccc3n(Cc3ccc(F)cc3)c2c1=O` the value was inactive: 86%; for `CC1=C(C(=O)Nc2ccccc2C)C(c2ccccc2O)NC(=S)N1` (centres undefined), inactive: 107%.
On to `CCOC(=O)c1ccc(N2C(=O)c3n[nH]c(-c4cccs4)c3C2c2ccc(C)cc2)cc1` (centres undefined), for which the survival was inactive: 66%.
Turning to `Cc1cc(NCCN)nc2ccccc12`, the survival was inactive: 104%.
To `COc1cccc(CNC(=O)CCNS(=O)(=O)c2cccc3nsnc23)c1` belongs inactive: 124%.
Regarding `Cc1cc2ccccc2n1-c1ccc(C(=O)N2CCCCC2)s1`, the survival was inactive: 63%.
To `Cc1nc(C)c(-c2ccc(SCC(=O)Nc3ccccc3F)nn2)s1` belongs inactive: 128%; to `COCCCNC(=O)CCCn1c(=O)c2cccn2c2cccnc21`, inactive: 88%; to `CCn1cc(S(=O)(=O)c2ccccc2)c(=O)c2cc(C)ccc21`, inactive: 125%.
With `COc1cc(OC)cc(C(=O)Nc2ccc(S(=O)(=O)Nc3cc(C)nc(C)n3)cc2)c1`, the survival is inactive: 75%.
To `CCOC(=O)c1[nH]c2ccccc2c1NC(=O)c1ccc(OC(C)C)cc1` belongs inactive: 75%; to `COc1ccc(C)cc1NC(=O)CSc1nnc(Cn2nnc3ccccc32)n1C`, inactive: 113%; to `COc1ccc(CCN2CC(C(=O)NCCc3ccc(C)cc3)CC2=O)cc1OC` (centres undefined), inactive: 60%.
For `CCCCn1c(COc2cccc(OC)c2)nc2ccccc21` the value was inactive: 88%; for `CC(C)(CC(=O)OCC(=O)Nc1ccc(F)c(Cl)c1)CC1=NS(=O)(=O)c2ccccc2N1`, inactive: 57%.
As to `COc1cc(NC(=O)c2cc3c(=O)oc4ccc(C)cc4c3s2)cc(OC)c1OC`, the survival is inactive: 82%.
To `O=C(CSc1nccn1-c1ccc(Cl)cc1)Nc1nc2ccccc2s1` belongs inactive: 85%; to `O=C(NC1CC(=O)N(c2ccc(F)cc2)C1)c1ccc(S(=O)(=O)N2CCCCC2)cc1` (centres undefined), inactive: 83%.
Take `O=c1c2sc3ccccc3c2n(Cc2cccc(F)c2)c(=O)n1Cc1ccccc1`: the survival was inactive: 97%.
For `CCOC(=O)Cn1c(=O)n(CC2CCCO2)c2nc(-c3ccccc3OC)nc(C(N)=O)c21` (centres undefined) the value was inactive: 81%; for `O=C(NCc1cccs1)c1ccc2c(=O)n3nc(Nc4ccccc4)sc3nc2c1`, inactive: 72%.
For `Cc1cccc2sc(N(Cc3cccnc3)C(=O)CCc3ccccc3)nc12` the value was inactive: 127%.
To `CCOC(=O)c1ccc(N2C(=O)c3[nH]nc(-c4ccccc4)c3C2c2ccc(CC)cc2)cc1` (centres undefined) belongs inactive: 89%; to `CCCn1c(N2CCN(CC(=O)Nc3ccc(Cl)cc3)CC2)nc2ccccc21`, inactive: 118%.
Take `COc1ccccc1CNC(=O)C1CCCN(S(=O)(=O)c2ccc3c(c2)oc(=O)n3C)C1` (centres undefined): the survival is inactive: 92%.
For `COc1ccc(-c2cc(C(=O)Nc3c(C(=O)c4ccc(C)cc4)oc4ccccc34)no2)cc1` the value was inactive: 80%; for `O=C(c1ccc2c(c1)N(Cc1ccccc1F)C(=O)c1ccccc1S2(=O)=O)N1CCC(Cc2ccccc2)CC1`, inactive: 83%.
In the case of `O=C(Cn1c(=O)n(Cc2nc(-c3ccccc3)no2)c(=O)c2ccccc21)Nc1cccc(C(F)(F)F)c1`, the survival is inactive: 89%.
Consider `Cc1c(Cl)cccc1NC(=O)CC1Oc2ccccc2NC1=O` (centres undefined), for which the survival was inactive: 89%.
Take `CCOc1ccccc1C(=O)N(Cc1ccco1)Cc1ccco1`: the survival was inactive: 83%.
Regarding `CC1C(=O)Nc2ccc(S(=O)(=O)N3CCCCC3)cc2NC1=O` (centres undefined), the survival was inactive: 87%.
As for `CCC(CC)C(=O)OCc1cc(=O)n2nc(C3CC3)sc2n1`, the survival was inactive: 83%.
To `CC1=C(c2ccc(Cl)cc2)S(=O)(=O)NC1=NCCCN1CCN(c2cc(C)ccc2C)CC1` belongs inactive: 69%.
On to `O=C(CCCn1c(=O)c2cccn2c2ccccc21)Nc1cc(C(F)(F)F)ccc1Cl`, for which the survival was inactive: 80%.
To `Cn1cc(-c2cc3n(n2)CCC(=O)N3CCCC(=O)NCc2ccc(Cl)cc2)c2ccccc21` belongs inactive: 124%; to `CC(C(=O)Nc1ccccc1C(=O)N1CCCC1)n1nnc2ccccc21` (centres undefined), inactive: 127%.
`CCOc1ccccc1NC(=O)CN1C(=O)COc2ccc(S(=O)(=O)N3CCOCC3)cc21`: the survival is inactive: 98%.
With `CC(C)C(OC(=O)c1cc2occc2n1C(C)C)C(=O)NCC1CCCO1` (centres undefined), the survival is inactive: 123%.
For `CCOc1ccc(NCc2cccn2-c2nnc(N3CCC(C(=O)NCC(C)c4ccccc4)CC3)s2)cc1` (centres undefined) the value was inactive: 80%.
To `COc1ccc(Cn2c(CCC(=O)Nc3cc(OC)c(OC)c(OC)c3)nc3cccnc32)cc1` belongs inactive: 132%.
With `O=C(CSc1nccn1Cc1ccccc1)NCc1ccco1`, the survival is inactive: 99%.
As for `Cc1cc(C)n(C(C)CC(=O)Nc2cccc(C(F)(F)F)c2)n1` (centres undefined), the survival was inactive: 72%.
Consider `CCN(CC)c1ccc(NC(=O)C2CCN(c3nnc(-n4cccc4)s3)CC2)c(C)c1`, for which the survival is inactive: 65%.
To `CCN(c1ccccc1)S(=O)(=O)c1ccc(NC(=O)c2nc(SC)ncc2Cl)cc1` belongs inactive: 88%.

These data come from PubChem BioAssay AID463173 (ICCB-Longwood Screening Facility, Harvard Medical School, 2010).
